# According to the BET-seq Pho4 binding data (Le et al. 2018):
# The list shows a part of the results. The energies were worked out here from pooled read counts, against the library average; single values are noisy.
# Target: T1, Pho4 (S. cerevisiae) (UniProt P07270)
# T1 sequence: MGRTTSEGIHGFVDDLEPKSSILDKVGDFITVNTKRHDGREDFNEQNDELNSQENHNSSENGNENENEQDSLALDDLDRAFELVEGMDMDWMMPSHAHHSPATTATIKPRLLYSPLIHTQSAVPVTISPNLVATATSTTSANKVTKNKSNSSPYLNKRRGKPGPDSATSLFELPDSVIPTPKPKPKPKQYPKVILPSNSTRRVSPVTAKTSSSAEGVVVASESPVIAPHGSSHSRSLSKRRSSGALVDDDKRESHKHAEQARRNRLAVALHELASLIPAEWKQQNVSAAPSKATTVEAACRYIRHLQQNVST
# Assay: relative binding free energy (BET-seq); higher = weaker binding
# Conditions: reference: library average
row,Sequence,relative binding free energy [kcal/mol]
1,GATTTCACGTGTGTTG,0.36
2,CTAGGCACGTGTGCGG,-0.31
3,GAGCTCACGTGGTAGT,0.22
4,TAATGCACGTGAGGGC,0.22
5,TGTGGCACGTGGTCGC,-0.24
6,TCTATCACGTGTTATG,0.08
7,TTGGTCACGTGGTAGT,0.18
8,CGGTGCACGTGTAATG,0.03
9,CGCTGCACGTGTTGTT,0
10,GGATTCACGTGAGGTA,0.47
11,CTGTTCACGTGGGGGC,0.17
12,GGGTACACGTGATAGA,0.32
13,TCTGTCACGTGGAGCA,0.3
14,GTATACACGTGGGATA,-0.12
15,ATGGTCACGTGCGAGG,0
16,AGTATCACGTGATTGG,0.24
17,TCGGTCACGTGGGCTT,0.03
18,ATGTGCACGTGGTGCA,-0.23
19,GTTGCCACGTGACTTG,0.23
20,CTTCACACGTGGGGTG,-0.11
21,GCAAGCACGTGGAGTT,0.1
22,TGTATCACGTGAGCAA,0.35
23,ATTTTCACGTGTTAAC,0.23
24,CGTCACACGTGGAGGG,0.13
25,TCAAACACGTGTTGTG,-0.01
26,ATTGACACGTGTGAGT,0.05

row,Sequence,relative binding free energy [kcal/mol]
1,CGGTGCACGTGTTGTG,-0.04
2,TAGCCCACGTGGGGGT,-0.3
3,TTATGCACGTGTGTCG,-0.07
4,TCCGTCACGTGTGTGT,0.14
5,TTATTCACGTGAGGAT,0.41
6,TAGGCCACGTGGTGGC,-0.05
7,TGAGTCACGTGATGTC,0.12
8,GAAAGCACGTGTTGAT,0.06
9,TTTGCCACGTGGTTAA,-0.22
10,TATTGCACGTGCGGAT,-0.01
11,GTAAACACGTGTGTGG,-0.09
12,GGTGGCACGTGGTGGA,-0.05
13,TTTTACACGTGTGTAG,0.03
14,GACTGCACGTGATTGT,0.25
15,TTTGTCACGTGAGAGA,0.28
16,TTAAACACGTGGAGTG,-0.01
17,ATTCTCACGTGTAATG,0.16
18,CAGGGCACGTGTAGGT,-0.12
19,GAGGGCACGTGGGCCG,-0.12
20,TAGTGCACGTGGGCGG,-0.2
21,AGTTACACGTGGAATG,0.34
22,AGGATCACGTGGGCTT,-0.01
23,GGGTGCACGTGTAGGC,0.13
24,AGATACACGTGTTGGT,-0.06
25,GTGGTCACGTGTGTCG,0.15
26,TTTGTCACGTGGGTAA,-0.03

row,Sequence,relative binding free energy [kcal/mol]
1,TGGAGCACGTGTGGAG,-0.09
2,CGGTACACGTGCTTTG,0.15
3,TTGCTCACGTGATTTT,0.18
4,GCATTCACGTGTGGTA,0.27
5,GTGTTCACGTGGGCTG,0.16
6,TATAACACGTGATTAG,0.17
7,ATTGTCACGTGACATT,0.12
8,GGGGCCACGTGGTTTG,0.06
9,TTGTGCACGTGATAAA,0.14
10,TGCTACACGTGGGGCG,-0.2
11,CGTTTCACGTGTACGG,0.18
12,TATGGCACGTGAGGCA,0.2
13,GTTATCACGTGAGTGT,0.28
14,GTTGACACGTGTCATG,-0.03
15,GGGAACACGTGTGGAG,0.24
16,TAGGGCACGTGTGAAG,-0.09
17,TGTAACACGTGTATAT,0.01
18,TGTTACACGTGTGGTG,0.14
19,AGGCGCACGTGGTCTT,-0.14
20,TAGATCACGTGGCGTG,-0.04
21,AGTTGCACGTGGATAA,0.1
22,GGTATCACGTGCCGTG,0.12
23,ACGGTCACGTGGCGGG,-0.07
24,GTATTCACGTGTAGTA,0.34
25,TGTGTCACGTGTATTT,0.18
26,AGTCACACGTGTTTAT,0.18

row,Sequence,relative binding free energy [kcal/mol]
1,ATTGACACGTGATGAT,0.2
2,GTTTTCACGTGGGTCC,0.23
3,TGAGTCACGTGGTATT,0.1
4,TTAGGCACGTGTCCGT,-0.17
5,ACGAGCACGTGGAGGG,-0.08
6,CGAGGCACGTGGTGAG,-0.07
7,GTTAGCACGTGGTGGA,-0.09
8,AAGGTCACGTGGTAAG,0.1
9,GGGAGCACGTGGTGGT,-0.06
10,TAAAGCACGTGGTTTA,-0.19
11,TTGGACACGTGGATTA,0.16
12,TAATACACGTGGGTTG,-0.12
13,GATTTCACGTGCTGTG,0.37
14,TTTATCACGTGGGCTG,0.01
15,TGTTTCACGTGGTCTC,0.12
16,GGTTCCACGTGTGGCT,0.2
17,GATTTCACGTGGAGAT,0.35
18,GTAGACACGTGCTGTT,-0.02
19,ATGTACACGTGTAGAT,0.16
20,CAGTTCACGTGGTAGT,0.16
21,AATTTCACGTGGGGAC,0.27
22,ATATGCACGTGTAGAA,-0.01
23,TCATTCACGTGGTAGG,0.08
24,CTTAGCACGTGGGCGT,-0.24
25,CGCTGCACGTGTGTGT,0.03
26,CTAGACACGTGGGCGG,-0.21

row,Sequence,relative binding free energy [kcal/mol]
1,TTTCTCACGTGGGTTC,0.24
2,GTTTGCACGTGTTATG,0.08
3,GAGTTCACGTGTAGGC,0.31
4,AAGATCACGTGTGGCG,0.12
5,TTTACCACGTGGGGTC,-0.21
6,AGTTACACGTGTAGGC,0.15
7,CGTCTCACGTGGTGGT,0.11
8,AGGGTCACGTGTGTAC,0.14
9,TGTAACACGTGGGGTT,-0.13
10,TCGGTCACGTGAAGGG,0.52
11,GGGCCCACGTGTTTGT,-0.02
12,CAAGCCACGTGGAGGG,0.02
13,GTGCTCACGTGCGTTA,0.31
14,GGGTCCACGTGGGTCA,-0.09
15,TGATTCACGTGTTAAA,0.41
16,TGCTACACGTGGGTAT,0.01
17,CGATACACGTGGTGTG,-0.06
18,GGCGGCACGTGTGGCT,-0.03
19,GTCGACACGTGGTATG,0.03
20,GATATCACGTGGCTTT,0.15
21,GGAGGCACGTGGGCCG,-0.2
22,GCACGCACGTGGGGTA,-0.17
23,TCAGGCACGTGACGGT,0.07
24,GGCAACACGTGAGTTT,0.5
25,TGAAACACGTGTGCTG,0.04
26,GAATGCACGTGTGTAA,0.06

row,Sequence,relative binding free energy [kcal/mol]
1,TAGTTCACGTGGTAGA,0.21
2,AGTTTCACGTGATTCG,0.5
3,AATGGCACGTGGAGAT,-0.08
4,AATTGCACGTGTACTG,0.01
5,AAGGGCACGTGATGTC,0.03
6,CTTTGCACGTGATATG,-0.03
7,TGATACACGTGGGCTT,-0.2
8,CGGAACACGTGTTGTT,0.07
9,GGTAGCACGTGGGTGA,-0.18
10,ATGATCACGTGATTGG,0.05
11,AATATCACGTGGTGGG,0.14
12,AATAACACGTGTGGCG,0.32
13,TTTAGCACGTGTCGAT,-0.01
14,ATATACACGTGGGCGG,-0.26
15,TGAGTCACGTGTGACT,0.1
16,TGCGTCACGTGACAGG,0.12
17,TAGTGCACGTGGGGGC,-0.24
18,TACGGCACGTGGTGCT,-0.29
19,TGCTCCACGTGGGTTG,-0.25
20,ATTCTCACGTGCGTGG,0.19
21,GGGGGCACGTGGTGGG,-0.13
22,TAGGGCACGTGAGAGT,0.13
23,TTAGGCACGTGAAGTC,0.26
24,TCTGGCACGTGCAGTG,-0.17
25,CGTGTCACGTGGGTCA,-0.14
26,GTTCGCACGTGGAGTA,-0.04

row,Sequence,relative binding free energy [kcal/mol]
1,GATGTCACGTGTAGTG,0.15
2,TGCGGCACGTGTGTAT,-0.05
3,TCTGACACGTGTGTTA,0.12
4,ATATTCACGTGGATTT,0.26
5,TGGTCCACGTGCGGGC,0.05
6,GGTGGCACGTGTCTCT,-0.07
7,TGTATCACGTGTAGCT,0.09
8,AGGGTCACGTGCGTGG,0
9,TTTATCACGTGTGTTC,0.17
10,TCCGTCACGTGTGTTT,0.21
11,TAAGGCACGTGGGGGA,-0.23
12,AGGGTCACGTGACTAG,-0.01
13,CAATTCACGTGGGTTA,0.18
14,GGATTCACGTGTCTAT,0.37
15,GTTGGCACGTGGAAGT,0.06
16,GTGATCACGTGATATT,0.23
17,ATAGCCACGTGAGGGG,0.05
18,ATTATCACGTGTGAGT,0.23
19,TGACGCACGTGGGTGG,-0.22
20,TGGTCCACGTGTGGCT,0.15
21,TGGCGCACGTGTGGGA,-0.04
22,TGGCACACGTGGTGCG,0.06
23,GATGTCACGTGAGTAA,0.27
24,GGAATCACGTGTGAAG,0.3
25,ACGATCACGTGATGGG,0.16
26,AGTGTCACGTGTTTGA,-0.07

row,Sequence,relative binding free energy [kcal/mol]
1,ATGTGCACGTGGACGA,-0.08
2,TGGTACACGTGAGAGT,0.28
3,ATGTGCACGTGAGTGC,0.06
4,TTGTACACGTGCTGGA,0.15
5,ATGATCACGTGTGGAT,0.13
6,GTTACCACGTGCAGGG,0.1
7,AACGTCACGTGGGGAG,-0.01
8,TCATGCACGTGTTGGG,-0.01
9,TTGATCACGTGGCTGT,0.18
10,GTTGTCACGTGAGCAT,0.24
11,GGATTCACGTGGGGTG,0.12
12,AAAGGCACGTGAGTCG,0.31
13,TTCGTCACGTGATTAT,0.11
14,AATGACACGTGTCAGG,0.19
15,AGGTACACGTGAATGG,0.11
16,GGGTACACGTGCATTG,0.07
17,ATTTTCACGTGGATTC,0.28
18,GGAGCCACGTGGATGG,-0.15
19,ATTTGCACGTGCTCGT,-0.09
20,AGAAACACGTGGTTAT,-0.01
21,GCACACACGTGGGGTG,-0.06
22,CTTGTCACGTGGTGTC,0.02
23,GGTCGCACGTGTCGTG,0.1
24,AAATTCACGTGGATAG,0.33
25,GATAACACGTGTATAT,0.2
26,TAGGTCACGTGATTTT,0.31

row,Sequence,relative binding free energy [kcal/mol]
1,TCAGTCACGTGAGAGT,0.3
2,ACTAGCACGTGGGGTA,-0.28
3,GGAGTCACGTGGGCGA,0.08
4,GATTCCACGTGAATGG,0.57
5,TCTTGCACGTGGTCTG,-0.19
6,TATCACACGTGTGAGT,0.1
7,TAGTGCACGTGCTGGC,-0.08
8,CATGTCACGTGGGATT,-0.05
9,GTTATCACGTGCTGGA,0.16
10,TTAGTCACGTGGTCAG,-0.01
11,CGCTGCACGTGATGTG,0.05
12,CGTGACACGTGGATTG,-0.09
13,TAAAGCACGTGTGTAT,0.08
14,AGTAACACGTGATGGG,0.11
15,TCCTCCACGTGTGGGT,0.23
16,ATCTTCACGTGTGGAG,0.16
17,TTAATCACGTGGTTCG,0.04
18,ATTGGCACGTGGTCAA,-0.17
19,GGAGACACGTGTGTGG,-0.05
20,GTGAACACGTGTGTTC,0.26
21,ATTAACACGTGGCTGG,-0.13
22,CGATTCACGTGGTATT,0.17
